# Measurements taken from PubChem BioAssay (NCATS).
# This is one part of the list. Shown are side measurements of this screen, not its main read-out; they come without a call. Compounds called inactive in the main read-out are mostly missing here. Potencies come from curve fits of mixed quality, noted in brackets.
# Test: Cell-based coincidence reporter assay to measure PMP22 gene transcription in S16 Pmp22-F2sN cells - Confirmatory screen (AID 1508646)
# Conditions: S16 Schwann cells Pmp22-F2sN, dual luciferase, 24 h; measured here: FLuc reporter channel
# Outline: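 S16 Schwann cells carrying a bioluminescent reporter in the Pmp22 3' UTR (Pmp22-F2sN) were treated with compounds for 24 h at 37C, then lysed; FLuc and then NLuc luminescence were read sequentially with a dual-luciferase kit on a CCD imager.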
# Tags give direction and shape of the fitted curve.
row,Structure (SMILES),AC50
1,Cc1cccc(Nc2nc3c(S(=O)(=O)c4ccc(Br)cc4)nnn3c3ccsc23)c1C,"9.68 µM [falling, full curve]"
2,CC(=O)c1c(C)oc2ccc(N(C(=O)Oc3ccccc3)S(=O)(=O)c3ccc(C(C)(C)C)cc3)cc12,"9.68 µM [falling, full curve, poor fit]"
3,CCc1ccc(-n2c(SCc3cccc(F)c3)nc3[nH]ncc3c2=O)cc1,"38.5 µM [falling, partial curve, poor fit]"
4,CC(C)(C)c1ccc(C(=O)NCC(c2ccco2)S(=O)(=O)c2ccc(F)cc2)cc1 (stereo unspecified),"17.2 µM [falling, partial curve]"
5,COc1ccccc1Nc1c2c(nc3ccc(NC(=O)/C=C/c4cc(OC)c(OC)c(OC)c4)cc13)CCCC2,"12.2 µM [falling, full curve]"
6,COc1ccc(NC(=O)C2CCCN(c3nnc(C)c4c(C)n(-c5ccccc5)nc34)C2)cc1Cl (stereo unspecified),"27.3 µM [falling, partial curve]"
7,CCCC(=O)Nc1nnc(SCc2cc(=O)c3ccc(C)cc3[nH]2)s1,"2.43 µM [falling, partial curve, poor fit]"
8,CCCOC(=O)c1c(C)oc2c1cc(NS(=O)(=O)c1ccc(OCC)cc1)c1ccccc12,"10.9 µM [falling, partial curve, poor fit]"
9,COc1ccccc1Nc1c2c(nc3ccc(NC(=O)/C=C/c4cccc(OC)c4OC)cc13)CCCC2,"6.85 µM [falling, full curve]"
10,CCCSc1ncc(Cl)c(C(=O)Nc2sc3c(c2C(=O)NCC)CCCC3)n1,"21.7 µM [falling, partial curve]"
11,COc1cc(C(=O)Nc2c(C(=O)Nc3ccccc3F)oc3ccccc23)cc(OC)c1OC,"7.69 µM [falling, partial curve]"
12,CCc1ccc(NC(=O)Cn2c(=O)n(-c3ccc(OC)cc3)c(=O)c3ccc(C(=O)NCc4ccc(C)cc4)cc32)cc1,"12.2 µM [falling, partial curve]"
13,Cc1ccc(NC(=O)c2nc(S(=O)(=O)Cc3cccc(C)c3)ncc2Cl)cc1,"10.9 µM [falling, partial curve]"
14,Cn1nnnc1SCCNCc1cc(Br)ccc1OCc1ccccc1Cl,"19.3 µM [falling, partial curve, poor fit]"
15,O=C(CSc1nc2cc(C(=O)NC3CCCC3)ccc2c(=O)n1CC1CCCO1)c1cccc(Cl)c1 (stereo unspecified),"24.3 µM [falling, partial curve]"
16,CC(=O)Nc1cccc(-c2nnc(SCC(=O)c3cc([N+](=O)[O-])ccc3Cl)o2)c1,"17.2 µM [falling, partial curve]"
17,COc1ccccc1-c1cc(C(F)(F)F)nc(S(=O)(=O)CCCC(=O)Nc2ccc(F)cc2F)n1,"15.3 µM [falling, partial curve]"
18,COc1ccccc1CNc1nc2c(S(=O)(=O)c3ccc(C)c(C)c3)nnn2c2ccc(Cl)cc12,"8.62 µM [falling, full curve]"
19,Cc1ccccc1S(=O)(=O)Cc1ccc(C(=O)N2CCN(c3cccc(Cl)c3)CC2)o1,"10.9 µM [falling, full curve]"
20,O=C(NCCc1ccc(Cl)cc1)c1ccc(Cn2c(=O)[nH]c3ccccc3c2=O)cc1,"21.7 µM [falling, partial curve]"
21,O=C(CSc1ncc2c(n1)-c1ccccc1N(Cc1ccc(F)cc1)S2(=O)=O)NCCc1ccccc1,"21.7 µM [falling, partial curve]"
22,Cc1ncc(CO)c2c1Oc1nc(-c3ccccc3)nc(SCC(=O)N3CCCCC3)c1C2,"21.7 µM [falling, partial curve]"
23,Cc1ccc(C)c(NC(=O)Cn2c(=O)n(Cc3ccco3)c(=O)c3oc4ccccc4c32)c1,"21.7 µM [falling, partial curve]"
24,CCCC(=O)N(c1ccc2oc(C)c(C(C)=O)c2c1)S(=O)(=O)c1ccc(CC)cc1,"19.3 µM [falling, partial curve]"
25,Cc1nnc(N2CCCC(C(=O)Nc3ccccc3C(F)(F)F)C2)c2nn(-c3ccccc3)c(C)c12 (stereo unspecified),"43.2 µM [falling, single point]"
26,CCc1ccc(CNC(=O)c2nn(-c3ccc(C)cc3)c(=O)c3c2c2ccccc2n3C)cc1,"24.3 µM [falling, partial curve]"
